According to patent JP2008297320A (priority 2000, dated 2001):
Where two headings read alike, the source gives them in different places.

Assays:
[1] = test system: influenza virus A/PR/8/34 strain (インフルエンザウイルスA/PR/8/34株); settings: Balb/C mice (female), intranasal 1.0 μmol/kg, given 7 days before infection (500 pfu)
[2] = test system: influenza virus A/PR/8/34 strain (インフルエンザウイルスA/PR/8/34株); settings: Balb/C mice (female), intranasal 0.3 μmol/kg; for survival rate: at 20 days after infection; for days until all mice had died: untreated mice all died by day 6

CO[C@@H]([C@@H]1OC(C(=O)O)=C[C@H](N=C(N)N)[C@H]1NC(C)=O)[C@H](O)CO [化合物B, 5-アセタミド-4-グアニジノ-2、3、4、5-テトラデオキシ-7-メトキシ-D-グリセロ-D-ガラクト-ノン-2-エノピラソン酸, reference compound]
day on which all mice had died [1]: 11 days

CCCCCCCC(=O)OC[C@@H](O)[C@@H](OC)[C@@H]1OC(C(=O)O)=C[C@H](N=C(N)N)[C@H]1NC(C)=O [化合物A, 5-アセタミド-4-グアニジノ-9-O-オクタノイル-2、3、4、5-テトラデオキシ-7-メトキシ-D-グリセロ-D-ガラクト-ノン-2-エノピラソン酸]
surviving mice ([1]; at 20 days after infection): 63%
survival rate ([2]; given 4 hours before infection (1,500 pfu)): 100%
survival rate ([2]; given 3 days before infection (1,500 pfu)): 83%
survival rate ([2]; given 5 days before infection (1,500 pfu)): 50%
days until all mice had died ([2]; given 7 days before infection (1,500 pfu)): 11 days
days until all mice had died ([2]; given 10 days before infection (1,500 pfu)): 8 days
